{"source": "paper PMC6824042", "key": {"[1]": {"target": "T1, Izumo sperm-egg fusion protein 1 (IZUMO1) (mouse (endogenous in mouse spermatozoa)) (UniProt Q9D9J7)", "T1 sequence": "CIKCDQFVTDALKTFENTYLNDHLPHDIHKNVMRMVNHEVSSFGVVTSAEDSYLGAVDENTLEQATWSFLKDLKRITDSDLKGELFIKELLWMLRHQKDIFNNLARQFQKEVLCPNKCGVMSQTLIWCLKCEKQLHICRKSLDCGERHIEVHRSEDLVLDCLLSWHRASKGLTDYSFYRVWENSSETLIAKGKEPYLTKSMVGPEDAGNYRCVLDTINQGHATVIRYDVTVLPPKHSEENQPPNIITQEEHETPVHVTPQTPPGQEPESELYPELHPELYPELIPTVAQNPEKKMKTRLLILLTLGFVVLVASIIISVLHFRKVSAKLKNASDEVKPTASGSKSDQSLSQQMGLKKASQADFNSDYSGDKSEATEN", "assay": "co-IP; reciprocal; antibody cross-linked (DTSSP) to protein G magnetic beads, about 100 μg pre-cleared lysate of acrosome-reacted mouse spermatozoa, overnight at 4 °C, immunoblot"}, "[2]": {"target": "T1, Izumo sperm-egg fusion protein 1 (IZUMO1) (mouse (endogenous in mouse spermatozoa))", "assay": "native gel or EMSA; 1D and 2D BN-PAGE of mouse sperm lysates (non-capacitated, capacitated, acrosome-reacted); band of complex I excised for mass spectrometry; immunoblots with IZUMO1 or GLIPR1L1 antibodies"}, "[3]": {"target": "T1, Izumo sperm-egg fusion protein 1 (IZUMO1) (mouse (endogenous in mouse spermatozoa))", "assay": "proximity ligation; in situ PLA with IZUMO1 and GLIPR1L1 antibodies on cells fixed in 4% PFA: pachytene spermatocytes, round spermatids and acrosome-reacted spermatozoa"}, "[4]": {"target": "T1, Izumo sperm-egg fusion protein 1 (IZUMO1) (mouse (endogenous in mouse spermatozoa))", "assay": "condition: only in epididymal spermatozoa before the acrosome reaction; proximity ligation; in situ PLA with IZUMO1 and GLIPR1L1 antibodies on fixed epididymal (acrosome-intact) spermatozoa"}, "[5]": {"target": "T2, GLI pathogenesis-related 1-like 1 (GLIPR1L1) (mouse (endogenous in mouse spermatozoa)) (UniProt Q9DAG6)", "T2 sequence": "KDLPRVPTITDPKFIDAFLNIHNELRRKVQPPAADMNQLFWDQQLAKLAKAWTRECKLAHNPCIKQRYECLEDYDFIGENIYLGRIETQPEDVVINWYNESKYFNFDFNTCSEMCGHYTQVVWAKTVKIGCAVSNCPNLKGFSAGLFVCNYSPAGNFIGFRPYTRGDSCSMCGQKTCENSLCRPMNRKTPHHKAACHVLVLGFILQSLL", "assay": "co-IP; reciprocal; antibody cross-linked (DTSSP) to protein G magnetic beads, about 100 μg pre-cleared lysate of acrosome-reacted mouse spermatozoa, overnight at 4 °C, immunoblot"}, "[6]": {"target": "T1, Izumo sperm-egg fusion protein 1 (IZUMO1) (mouse (endogenous in mouse spermatozoa))", "assay": "proximity ligation; in situ PLA on fixed spermatozoa, negative controls with paired antibodies (IZUMO1 and tubulin; IZUMO1 and acrosin)"}}, "note": "These are yes or no findings as the source states them, for the method shown. For part of these data: Binding seen in cells or lysates may run through a third protein. Some entries that bind do so weakly or less than the wild type. Tags and fused reporters may be left off the sequences shown."}
{"binder": "GLI pathogenesis-related 1-like 1 (GLIPR1L1) (protein, UniProt Q9DAG6 28-236) KDLPRVPTITDPKFIDAFLNIHNELRRKVQPPAADMNQLFWDQQLAKLAKAWTRECKLAHNPCIKQRYECLEDYDFIGENIYLGRIETQPEDVVINWYNESKYFNFDFNTCSEMCGHYTQVVWAKTVKIGCAVSNCPNLKGFSAGLFVCNYSPAGNFIGFRPYTRGDSCSMCGQKTCENSLCRPMNRKTPHHKAACHVLVLGFILQSLL", "values": [{"measurement": "binding", "setting": "[1]", "result": "binds"}, {"measurement": "binding", "setting": "[2]", "result": "binds"}, {"measurement": "binding", "setting": "[3]", "result": "binds"}, {"measurement": "binding", "setting": "[4]", "result": "no binding"}]}
{"binder": "Izumo sperm-egg fusion protein 1 (IZUMO1) (protein, UniProt Q9D9J7 22-397) CIKCDQFVTDALKTFENTYLNDHLPHDIHKNVMRMVNHEVSSFGVVTSAEDSYLGAVDENTLEQATWSFLKDLKRITDSDLKGELFIKELLWMLRHQKDIFNNLARQFQKEVLCPNKCGVMSQTLIWCLKCEKQLHICRKSLDCGERHIEVHRSEDLVLDCLLSWHRASKGLTDYSFYRVWENSSETLIAKGKEPYLTKSMVGPEDAGNYRCVLDTINQGHATVIRYDVTVLPPKHSEENQPPNIITQEEHETPVHVTPQTPPGQEPESELYPELHPELYPELIPTVAQNPEKKMKTRLLILLTLGFVVLVASIIISVLHFRKVSAKLKNASDEVKPTASGSKSDQSLSQQMGLKKASQADFNSDYSGDKSEATEN", "values": [{"measurement": "binding", "setting": "[5]", "result": "binds"}]}
{"binder": "acrosin (protein, UniProt P23578 20-436) KDNTTCDGPCGLRFRQNSQAGTRIVSGQSAQLGAWPWMVSLQIFTSHNSRRYHACGGSLLNSHWVLTAAHCFDNKKKVYDWRLVFGAQEIEYGRNKPVKEPQQERYVQKIVIHEKYNVVTEGNDIALLKITPPVTCGNFIGPCCLPHFKAGPPQIPHTCYVTGWGYIKEKAPRPSPVLMEARVDLIDLDLCNSTQWYNGRVTSTNVCAGYPEGKIDTCQGDSGGPLMCRDNVDSPFVVVGITSWGVGCARAKRPGVYTATWDYLDWIASKIGPNALHLIQPATPHPPTTRHPMVSFHPPSLRPPWYFQHLPSRPLYLRPLRPLLHRPSSTQTSSSLMPLLSPPTPAQPASFTIATQHMRHRTTLSFARRLQRLIEALKMRTYPMKHPSQYSGPRNYHYRFSTFEPLSNKPSEPFLHS", "values": [{"measurement": "binding", "setting": "[6]", "result": "no binding"}]}
